The IC50 comes from the fitted curve, where viability falls to half of the control; fits outside the tested doses are given as limits. The AUC spans the tested range (256-fold, ending at the top dose) of the same fit: 1 means no effect, lower means more sensitive. Any top dose called inferred was calculated from the reported fits.

Compound in this test: N.N.[Cl][Pt][Cl] [Cisplatin]
The test can be described thus: Viability of human cancer cell lines after 72 h of drug (GDSC screen). The following applies: top dose inferred. The procedure:
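Human cancer cell lines in 384-well plates, medium with 10% serum, drug for 72 h over a 256-fold dose range (nine 2-fold or five 4-fold steps up to the top dose). Adherent lines were fixed and stained with the nucleic acid dye Syto60, suspension lines read with resazurin; signal relative to control wells, capped at 0 and 100%. One two-parameter sigmoid per drug and line, fitted in a mixed model over all curves with the slope shared within a line.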
As to “SW982 (soft tissue, adherent, top dose 10 µM)”, the AUC turned out to be 0.845 and the IC50 turned out to be 7.58 µM.

For “SW1271 (small cell lung carcinoma, adherent, top dose 10 µM)”, the AUC is 0.942 and the IC50 was more than 10 µM.

In the case of “SW1417 (large intestine, adherent, top dose 10 µM)”, the AUC is 0.969 and the IC50 is more than 10 µM.

As to “SW1573 (lung adenocarcinoma, adherent, top dose 10 µM)”, the AUC was 0.932 and the half-inhibitory concentration (IC50) was more than 10 µM.

Regarding “SW1710 (bladder, adherent, top dose 10 µM)”, the AUC worked out at 0.948 and the IC50 is more than 10 µM.

On to “SW1783 (glioma, adherent, top dose 10 µM)”, for which the AUC is 0.938 and the IC50 was more than 10 µM.

Regarding “SW1990 (pancreas, adherent, top dose 10 µM)”, the AUC amounted to 0.81 and the IC50 is 6.4 µM.

Consider “Saos-2 (osteosarcoma, adherent, top dose 10 µM)”, for which the AUC worked out at 0.917 and the IC50 is more than 10 µM.

Regarding SiHa (cervix, adherent, top dose 10 µM), the AUC stood at 0.894 and the IC50 was more than 10 µM.

For T47D (breast, adherent, top dose 10 µM), the AUC came out at 0.954 and the IC50 is more than 10 µM.

In the case of “T84 (large intestine, adherent, top dose 10 µM)”, the AUC came to 0.98 and the IC50 is more than 10 µM.

Consider T98G (glioma, adherent, top dose 10 µM), for which the AUC worked out at 0.961 and the IC50 is more than 10 µM.

With “T-T (oesophagus, adherent, top dose 10 µM)”, the AUC came to 0.938 and the IC50 is more than 10 µM.

As to “TC-YIK (cervix, suspension, top dose 10 µM)”, the AUC worked out at 0.869 and the IC50 was found to be 7.22 µM.

Consider “TE-1 (oesophagus, adherent, top dose 10 µM)”, for which the AUC was found to be 0.912 and the IC50 is more than 10 µM.

On to “TE-4 (oesophagus, adherent, top dose 10 µM)”, for which the AUC came to 0.936 and the IC50 was more than 10 µM.

In the case of “TE-5 (oesophagus, adherent, top dose 10 µM)”, the AUC was determined as 0.908 and the IC50 is more than 10 µM.

“TE-6 (oesophagus, adherent, top dose 10 µM)”: the AUC worked out at 0.941 and the IC50 was more than 10 µM.

For the cell line “TE-8 (oesophagus, adherent, top dose 10 µM)”, the AUC is 0.867 and the IC50 is more than 10 µM.

Take “TE-9 (oesophagus, adherent, top dose 10 µM)”: the AUC is 0.914 and the IC50 was more than 10 µM.

As to “TE-11 (oesophagus, adherent, top dose 10 µM)”, the AUC is 0.943 and the IC50 was more than 10 µM.

Consider “TE-12 (oesophagus, suspension, top dose 10 µM)”, for which the AUC came out at 0.848 and the IC50 is more than 10 µM.

In the case of “TE-15 (oesophagus, suspension, top dose 10 µM)”, the AUC turned out to be 0.937 and the 50% inhibitory concentration (IC50) is more than 10 µM.

Take “TGBC1TKB (biliary tract, adherent, top dose 10 µM)”: the AUC was determined as 0.949 and the concentration for half-maximal inhibition (IC50) is more than 10 µM.

For “TGBC11TKB (stomach, adherent, top dose 10 µM)”, the AUC came to 0.975 and the IC50 was more than 10 µM.

Turning to “TGW (neuroblastoma, adherent, top dose 10 µM)”, the AUC is 0.916 and the half-maximal inhibitory concentration (IC50) is more than 10 µM.

TK10 (kidney, adherent, top dose 10 µM): the AUC was found to be 0.919 and the IC50 is more than 10 µM.

Regarding “TK (B-cell lymphoma, suspension, top dose 10 µM)”, the AUC was determined as 0.958 and the IC50 is more than 10 µM.

Turning to “TMK-1 (stomach, adherent, top dose 10 µM)”, the AUC is 0.869 and the 50% inhibitory concentration (IC50) was more than 10 µM.

As for “TOV-21G (ovary, adherent, top dose 10 µM)”, the AUC was found to be 0.573 and the IC50 is 1.01 µM.

“TOV-112D (ovary, adherent, top dose 10 µM)”: the AUC was determined as 0.899 and the IC50 was more than 10 µM.

Take “TT2609-C02 (thyroid, adherent, top dose 10 µM)”: the AUC was found to be 0.917 and the IC50 was more than 10 µM.

As for TT (thyroid, adherent, top dose 10 µM), the AUC was determined as 0.902 and the IC50 is more than 10 µM.

With “TUR (B-cell lymphoma, suspension, top dose 10 µM)”, the AUC was 0.956 and the IC50 was more than 10 µM.

Turning to “TYK-nu (ovary, adherent, top dose 10 µM)”, the AUC came out at 0.85 and the IC50 is 8.38 µM.

In the case of U251 (glioma, adherent, top dose 10 µM), the AUC was determined as 0.881 and the IC50 came out at 9.62 µM.

For the cell line “U-87-MG (glioma, adherent, top dose 10 µM)”, the AUC was 0.912 and the IC50 was more than 10 µM.

Regarding “U-118-MG (glioma, adherent, top dose 10 µM)”, the AUC stood at 0.89 and the IC50 is more than 10 µM.

In the case of “U-266 (myeloma, semi-adherent, top dose 10 µM)”, the AUC turned out to be 0.954 and the IC50 was more than 10 µM.

Consider “U-698-M (B-cell leukaemia, suspension, top dose 10 µM)”, for which the AUC came out at 0.924 and the IC50 was more than 10 µM.

Regarding “UACC-62 (melanoma, adherent, top dose 10 µM)”, the AUC was 0.89 and the IC50 was more than 10 µM.

On to “UACC-257 (melanoma, adherent, top dose 10 µM)”, for which the AUC is 0.941 and the IC50 was more than 10 µM.

As for “UACC-893 (breast, adherent, top dose 10 µM)”, the AUC is 0.908 and the IC50 is more than 10 µM.

In the case of “UM-UC-3 (bladder, adherent, top dose 10 µM)”, the AUC amounted to 0.833 and the 50% inhibitory concentration (IC50) was found to be 5.93 µM.

For the cell line “UMC-11 (lung carcinoid, adherent, top dose 10 µM)”, the AUC turned out to be 0.991 and the IC50 was more than 10 µM.

For “UWB1.289 (ovary, adherent, top dose 10 µM)”, the AUC was 0.905 and the IC50 is more than 10 µM.

With “VA-ES-BJ (soft tissue, adherent, top dose 10 µM)”, the AUC was found to be 0.718 and the IC50 came to 2.7 µM.

Turning to “VAL (B-cell lymphoma, suspension, top dose 10 µM)”, the AUC was found to be 0.932 and the IC50 was more than 10 µM.

In the case of “VCaP (prostate, adherent, top dose 10 µM)”, the AUC stood at 0.987 and the IC50 was more than 10 µM.

In the case of “VMRC-LCD (lung adenocarcinoma, adherent, top dose 10 µM)”, the AUC came to 0.972 and the IC50 was more than 10 µM.

Take “VMRC-MELG (melanoma, adherent, top dose 10 µM)”: the AUC was 0.985 and the IC50 was more than 10 µM.

Turning to “VMRC-RCW (kidney, adherent, top dose 10 µM)”, the AUC came to 0.949 and the IC50 was more than 10 µM.

Regarding “VMRC-RCZ (kidney, adherent, top dose 10 µM)”, the AUC came to 0.976 and the IC50 was more than 10 µM.

On to “WIL2-NS (lymphoid neoplasm, suspension, top dose 10 µM)”, for which the AUC is 0.908 and the IC50 was determined as 9.26 µM.

As to “WM35 (melanoma, adherent, top dose 10 µM)”, the AUC stood at 0.847 and the IC50 was 7.44 µM.

Consider “WM278 (melanoma, adherent, top dose 10 µM)”, for which the AUC was 0.899 and the IC50 was more than 10 µM.

In the case of “WM793B (melanoma, adherent, top dose 10 µM)”, the AUC was 0.884 and the IC50 was more than 10 µM.

For “WM1552C (melanoma, adherent, top dose 10 µM)”, the AUC came out at 0.886 and the IC50 was more than 10 µM.

For the cell line “WM-115 (melanoma, adherent, top dose 10 µM)”, the AUC was found to be 0.883 and the concentration for half-maximal inhibition (IC50) was more than 10 µM.

On to “WSU-DLCL2 (B-cell lymphoma, suspension, top dose 10 µM)”, for which the AUC worked out at 0.976 and the IC50 is more than 10 µM.

For the cell line “WSU-NHL (lymphoid neoplasm, suspension, top dose 10 µM)”, the AUC turned out to be 0.921 and the IC50 was more than 10 µM.

In the case of “YAPC (pancreas, adherent, top dose 10 µM)”, the AUC turned out to be 0.985 and the IC50 is more than 10 µM.

Take “YH-13 (glioma, adherent, top dose 10 µM)”: the AUC was 0.884 and the IC50 is more than 10 µM.

Take “YKG-1 (glioma, adherent, top dose 10 µM)”: the AUC stood at 0.829 and the IC50 came to 6.36 µM.

Consider “YT (lymphoid neoplasm, suspension, top dose 10 µM)”, for which the AUC turned out to be 0.988 and the IC50 was more than 10 µM.

“ZR-75-30 (breast, adherent, top dose 10 µM)”: the AUC stood at 0.964 and the IC50 was more than 10 µM.

For huH-1 (liver, adherent, top dose 10 µM), the AUC was found to be 0.819 and the IC50 was determined as 7.53 µM.

In the case of “no-10 (glioma, adherent, top dose 10 µM)”, the AUC is 0.942 and the IC50 was more than 10 µM.

For “no-11 (glioma, adherent, top dose 10 µM)”, the AUC is 0.857 and the IC50 is more than 10 µM.

The values above are taken from the supplement of paper PMC4967469.
